The values that follow come from PubChem BioAssay AID360 (National Center for Advancing Translational Sciences (NCATS), 2006).

The campaign covered roughly 48,000 compounds. About 550 (1.1%) were called active. Not shown: some 4% with an inconclusive outcome. Rule as the data show it: active = potency below about 15 µM; inconclusive = mostly about 16 µM to 33 µM; inactive = weaker than that. The list shows a part of the results.
Potency is read from the fitted curve at half-maximal effect.

UniProt P04062, sequence (P04062 whole entry, looked up): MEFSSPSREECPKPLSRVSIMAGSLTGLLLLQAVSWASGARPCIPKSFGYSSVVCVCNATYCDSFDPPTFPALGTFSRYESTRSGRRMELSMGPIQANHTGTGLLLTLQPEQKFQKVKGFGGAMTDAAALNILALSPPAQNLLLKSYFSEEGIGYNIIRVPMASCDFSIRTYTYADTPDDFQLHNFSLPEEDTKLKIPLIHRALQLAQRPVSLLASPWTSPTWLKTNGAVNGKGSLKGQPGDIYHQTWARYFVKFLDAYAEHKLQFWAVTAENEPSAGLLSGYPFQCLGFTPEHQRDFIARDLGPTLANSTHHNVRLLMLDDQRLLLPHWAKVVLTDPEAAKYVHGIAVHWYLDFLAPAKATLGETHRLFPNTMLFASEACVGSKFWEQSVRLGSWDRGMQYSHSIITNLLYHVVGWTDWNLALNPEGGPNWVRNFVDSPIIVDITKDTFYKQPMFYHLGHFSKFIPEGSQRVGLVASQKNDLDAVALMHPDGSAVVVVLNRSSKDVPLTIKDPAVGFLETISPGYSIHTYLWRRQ

For the test, the target named is Lysosomal acid glucosylceramidase (Homo sapiens) (UniProt P04062). Put plainly: Glucocerebrosidase.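 Also: the screen sought inhibitors.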 The following applies: purified enzyme, resorufin glucoside fluorescence (screen aimed at inhibitors), 20 min. In a few lines:
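Wild-type enzyme at 0.2 nM final in 50mM citric acid/KH2PO4, 10mM sodium taurocholate, 0.01% tween-20, pH 5.9, with resorufin beta-D-glucopyranoside at 30 uM final. Compounds titrated, 20 min at RT, red fluorescence read; AC50 from titration.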
For `O=C(O)CCCC(=O)Nc1cccc2cccnc12`, the Potency was inactive: > 76.9 µM.

With `C=CCNC(=O)CN1CCC(O)(c2ccc(F)cc2)CC1`, the Potency was inactive: > 76.9 µM.

As for `O=C(c1ccco1)N1CCN(/C(=N/S(=O)(=O)c2cccs2)c2ccccc2Cl)CC1`, the Potency is inactive: > 76.9 µM.

In the case of `C/C=C/Cn1c(SC)nc2c1c(=O)[nH]c(=O)n2C`, the Potency was inactive: > 76.9 µM.

For `COc1ccc(-c2noc(CSc3nc4ccccc4c(=O)n3-c3ccccc3)n2)cc1`, the Potency was inactive: > 76.9 µM.

Consider `COc1cc(C2C(C(=O)OC(C)C)=C(C)Nc3[nH]c(=O)[nH]c(=O)c32)ccc1O` (configuration not stated), for which the Potency was inactive: > 76.9 µM.

For `CCC(=O)N(Cc1cc2cc(OC)ccc2[nH]c1=O)c1ccccc1C`, the Potency is inactive: > 76.9 µM.

For the molecule `CCc1ccc(-c2nc(CSCC(=O)N3CCN(c4ccccn4)CC3)c(C)o2)cc1`, the Potency was inactive: > 76.9 µM.

`Cc1ccc(SCc2[nH]nc3c2C(c2ccco2)C(C#N)=C(N)O3)cc1` (configuration not stated): the Potency is inactive: > 76.9 µM.

Consider `O=C(Nc1cccc(Cl)c1N1CCCC1)c1cc2ccccc2o1`, for which the Potency is inactive: > 76.9 µM.

For `CC(=O)Nc1ccc2nc(C3CCCCC3)[nH]c2c1`, the Potency was inactive: > 76.9 µM.

Turning to `CCC(=O)c1ccc(OCCSc2ncccn2)cc1`, the Potency was inactive: > 76.9 µM.

`CC(=O)c1c(O)cc(C)n(Nc2nc(C)cc(C)n2)c1=O`: the Potency is inactive: > 76.9 µM.

In the case of `CCOCC(=O)Nc1nnc(COCC)s1`, the Potency is inactive: > 76.9 µM.

For the molecule `Cc1cc(C)n2ncc(C(=O)NCc3cccnc3)c2n1`, the Potency is inactive: > 76.9 µM.

With `COc1ccccc1N1CCN(c2cc(N3CCCC3)nc(C)n2)CC1`, the Potency was inactive: > 76.9 µM.

As to `Nc1c(S(=O)(=O)c2cccs2)c2nc3ccccc3nc2n1Cc1cccs1`, the Potency was inactive: > 76.9 µM.

`Cc1cc(NC(=O)CSc2nc(C(C)C)nc3sc4c(c23)CCCC4)no1`: the Potency is inactive: > 76.9 µM.

For the molecule `O=C(CCS(=O)(=O)c1cccc2nonc12)Nc1cccc2c1CCCC2`, the Potency is inactive: > 76.9 µM.

In the case of `CCOC(=O)c1cc(-c2ccncc2)nc2c1c(C)nn2C`, the Potency is inactive: > 76.9 µM.

Regarding `CCc1c(C(=O)Nc2ccc(OC)c(Cl)c2)[nH]c(C)c1C(C)=O`, the Potency was inactive: > 76.9 µM.

In the case of `O=C(Nc1ccc(Cl)cn1)c1cc(S(=O)(=O)N2CCCCC2)ccc1Cl`, the Potency was inactive: > 76.9 µM.

Consider `CCc1nc(NC(C)C)c2oc3ccccc3c2n1`, for which the Potency result is “inactive”.

With `CCOC(=O)C(C)n1cnc2c(nnn2-c2ccc(C)cc2)c1=O` (configuration not stated), the Potency is inactive: > 76.9 µM.

Turning to `O=C(O)CSCCn1cccn1`, the Potency is inactive: > 76.9 µM.

For `CCOC(=O)c1ccc(N2Cc3ccccc3C2)cc1O`, the Potency is inactive: > 76.9 µM.

As to `Cc1noc(C)c1C(=O)OCC(=O)c1c(N)n(CC(C)C)c(=O)n(C)c1=O`, the Potency is inactive: > 76.9 µM.

On to `O=C(COC(=O)c1ccc(=O)n(Cc2ccccc2)n1)Nc1ccc2c(c1)OCCO2`, for which the Potency is inactive: > 76.9 µM.

For `CCOC(=O)Nc1c(C)n(C)n(-c2ccccc2)c1=O`, the Potency is inactive: > 76.9 µM.

With `Nc1c(C(=O)c2cccs2)oc2ccccc12`, the Potency was inactive: > 76.9 µM.

As for `CCOC(=O)CCC(=O)Nc1ccc(S(=O)(=O)N2CCCC2)cc1`, the Potency was inactive: > 76.9 µM.

Take `Cc1ccc(C(=O)OCc2nnc(-c3ccccc3)o2)o1`: the Potency was inactive: > 76.9 µM.

Turning to `CC(=O)Nc1ccc2c(c1)C(=O)N(C1CCCCC1)C2=O`, the Potency is inactive: > 76.9 µM.

In the case of `CCOC(=O)C1CCCN(S(=O)(=O)c2cccs2)C1` (configuration not stated), the Potency was inactive: > 76.9 µM.

In the case of `O=C(Cc1cc(=O)oc2cc(O)ccc12)NCC1CCC(C(=O)O)CC1` (configuration not stated), the Potency is inactive: > 76.9 µM.

Take `COc1ccc(-n2nc3ccccc3n2)cc1`: the Potency is inactive: > 76.9 µM.

For `CC(C)COC(=O)N1CC(O)CC1C(=O)O` (configuration not stated), the Potency was inactive: > 76.9 µM.

With `O=C(CN1CCN(Cc2ccccc2)CC1)c1ccc(Br)cc1`, the Potency is inactive: > 76.9 µM.

In the case of `Cc1cccc(OCC(=O)Nc2cc(C)c(C)cc2O)c1`, the Potency was inactive: > 76.9 µM.

In the case of `COc1cccc(C2=CC(c3ccc(OC)c(OC)c3OC)n3nnnc3N2)c1` (configuration not stated), the Potency was inactive: > 76.9 µM.

In the case of `COc1cc(C)c(Cl)c(C)c1S(=O)(=O)NCc1ccc2c(c1)OCO2`, the Potency is inactive: > 76.9 µM.

In the case of `CCOc1cc(S(=O)(=O)NCCc2cccc(C)c2)c(OCC)cc1-n1cnnn1`, the Potency is inactive: > 76.9 µM.

Turning to `CC(=O)NC(Cc1c[nH]c2ccccc12)C(=O)NCc1ccc2c(c1)OCO2` (configuration not stated), the Potency was inactive: > 76.9 µM.

With `C=CCNC(=O)CN(c1ccc(F)cc1)S(=O)(=O)c1ccc(OC)cc1`, the Potency is inactive: > 76.9 µM.

Turning to `COCc1nc2ccccc2n1CCCOc1ccccc1`, the Potency was inactive: > 76.9 µM.

Turning to `O=C(Nc1ccc2c(c1)OCO2)C1CCN(c2ccc(S(=O)(=O)N3CCOCC3)cc2)CC1`, the Potency was inactive: > 76.9 µM.

For `COc1ccccc1CNC(=O)CCNC(=O)Cn1cnc2ccccc2c1=O`, the Potency is inactive: > 76.9 µM.

As for `CCCCNC(=O)CC(NS(=O)(=O)c1ccc(C)cc1)c1ccco1` (configuration not stated), the Potency is inactive: > 76.9 µM.

Consider `Cc1csc(NC(=O)C2CCN(C(=O)CSc3nnc(C)n3Cc3ccccc3)CC2)n1`, for which the Potency is inactive: > 76.9 µM.

As for `Cc1ccc(C)c(S(=O)(=O)N2CCN(CC(=O)Nc3cc(C)on3)CC2)c1`, the Potency is inactive: > 76.9 µM.

For the molecule `C=Cn1c(C(=O)O)cc(CC)c1-c1ccccc1`, the Potency was inactive: > 76.9 µM.

In the case of `Cc1cnc(C(=O)Nc2ccccc2-c2ccc(C)o2)cn1`, the Potency entry was “inactive”.

Consider `COC(=O)CN(C#N)c1nc(OC)nc(N(C)C)n1`, for which the Potency is inactive: > 76.9 µM.

Consider `CCC(Oc1ccc(C)c(C)c1)C(=O)O` (configuration not stated), for which the Potency was inactive: > 76.9 µM.

For the molecule `COc1ccc(-c2nc(N3CCOCC3)nc3nn4c(C)c(CCC(=O)O)c(C)nc4c23)cc1`, the Potency was inactive: > 76.9 µM.

`O=C(Cn1c(=O)[nH]c2ccsc2c1=O)N1CCN(c2ccc(F)cc2)CC1`: the Potency was inactive: > 76.9 µM.

On to `Cc1ccc(F)cc1NC(=O)C1CCN(c2cnccn2)CC1`, for which the Potency is inactive: > 76.9 µM.

On to `CC(=O)c1c(C)nc2ccccc2c1N`, for which the Potency is inactive: > 76.9 µM.

For `O=C(NCC(=O)N(CC1CCCO1)C(C(=O)NC1CCCC1)c1cccnc1)c1ccco1` (configuration not stated), the Potency is inactive: > 76.9 µM.

In the case of `Cc1ccc(NC(=O)C2CCN(S(=O)(=O)c3cnc[nH]3)CC2)nc1`, the Potency was inactive: > 76.9 µM.

`O=C(NCCCNC(=O)NC1CCCCC1)NC1CCCCC1`: the Potency was inactive: > 76.9 µM.

Regarding `COCCn1c(SCC(=O)Nc2ncc(C)s2)nc2sc3c(c2c1=O)CCC3`, the Potency is inactive: > 76.9 µM.

On to `CC1CC(C(F)(F)F)n2ncc(C(=O)O)c2N1` (configuration not stated), for which the Potency is inactive: > 76.9 µM.

Regarding `CC(=O)NCCc1ccc(S(=O)(=O)Nc2cccnc2)cc1`, the Potency was inactive: > 76.9 µM.

For `O=C(NC1CCCCCC1)c1ccc(N2CCCC2=O)cc1`, the Potency is inactive: > 76.9 µM.

Turning to `COc1ccc(N=C2SCC(=O)N2c2ccc(OC)cc2)cc1`, the Potency was inactive: > 76.9 µM.

As for `COc1cccc2c1OC1(C)CC2/C(=C(\C)O)C(=O)N1` (configuration not stated), the Potency is inactive: > 76.9 µM.

`COCCn1cnnc1SCC(=O)Nc1ccccc1C(=O)Nc1ccc2c(c1)OCO2`: the Potency is inactive: > 76.9 µM.

Turning to `COCCn1c(-c2ccccc2F)n[nH]c1=S`, the Potency was inactive: > 76.9 µM.

On to `COc1ccc(N2CCN(C(=O)c3cccc(N4C(=O)C5CC=CC(C)C5C4=O)c3)CC2)cc1` (configuration not stated), for which the Potency result was “inactive”.

Turning to `Cn1c(C(=O)O)c(CC(=O)Nc2ccc3c(c2)OCCO3)c2ccccc21`, the Potency was inactive: > 76.9 µM.

Regarding `Cc1nn2c(c1-c1ccccc1)N=C(c1ccco1)CC2c1ccccc1` (configuration not stated), the Potency is inactive: > 76.9 µM.

For `N#Cc1ccsc1NC(=O)c1cnccn1`, the Potency was inactive: > 76.9 µM.

For `O=C(Cn1nc(-c2ccc3c(c2)OCCO3)ccc1=O)Nc1ccc(N2CCOCC2)cc1`, the Potency was inactive: > 76.9 µM.

On to `COc1ccc(CCNC(=O)CSCc2n[nH]c(=O)[nH]2)cc1OC`, for which the Potency is inactive: > 76.9 µM.

As for `O=S(=O)(CCCc1ccccc1)c1ncn[nH]1`, the Potency is inactive: > 76.9 µM.

With `CC(C)(C)NS(=O)(=O)c1ccc(CCC(=O)N2CCOCC2)cc1`, the Potency is inactive: > 76.9 µM.

On to `COCCN(CCOC)C(=O)c1cc2c(=O)n3ccccc3nc2s1`, for which the Potency was inactive: > 76.9 µM.

As for `Cc1cc2c3c(c1)C1(C(=O)N3C(C)(C)CC2C)C(C#N)=C(N)Oc2cc(O)ccc21` (configuration not stated), the Potency result is “inactive”.

On to `O=C1CN(C(=O)CSc2nncn2-c2ccccc2)c2ccccc2N1`, for which the Potency was inactive: > 76.9 µM.

Take `COc1nc(OC/C(N)=N/O)nc(N2CCOCC2)n1`: the Potency is inactive: > 76.9 µM.

For the molecule `Cc1cc(C(=O)CSc2nnnn2C)c(C)n1CCc1ccc(Cl)cc1`, the Potency was inactive: > 76.9 µM.

Consider `N/C(COc1ccc(C(=O)O)cc1)=N\O`, for which the Potency was inactive: > 76.9 µM.

For `CC1CCCC(NC(=O)CSc2nnc(N)s2)C1C` (configuration not stated), the Potency is inactive: > 76.9 µM.

Regarding `CCN(C(=O)CSc1nncs1)c1c(N)n(Cc2ccccc2)c(=O)[nH]c1=O`, the Potency is inactive: > 76.9 µM.

For `CCOc1ccc(OCC)c(NC(=O)CN2CCN(c3cccc(C)c3)C(C)C2)c1` (configuration not stated), the Potency was inactive: > 76.9 µM.

Turning to `COc1ccc(CC(=O)OCc2cc3cccc(C)c3[nH]c2=O)cc1`, the Potency is inactive: > 76.9 µM.

As to `Cc1cc(C)c(C#N)c(SCC(O)CS(=O)(=O)Cc2ccccc2)n1` (configuration not stated), the Potency is inactive: > 76.9 µM.

On to `O=c1[nH]c(SCCOc2ccccc2)nc2ccccc12`, for which the Potency is inactive: > 76.9 µM.

Consider `O=C(CSc1n[nH]c(=O)n1C1CC1)Nc1cc(Cl)ccc1Oc1ccccc1`, for which the Potency is inactive: > 76.9 µM.

In the case of `O=C(Nc1ccc(CN2CCOCC2)cc1)c1cc2ccccc2oc1=O`, the Potency is inactive: > 76.9 µM.

Take `O=C(CSc1nc(-c2ccco2)cc(C(F)(F)F)n1)N1CCc2ccccc2C1`: the Potency is inactive: > 76.9 µM.
